# Measured values reported in PubChem BioAssay AID485281 (National Center for Advancing Translational Sciences (NCATS), 2010).
# The whole screen tested about 350,000 compounds, of which about 260 (0.074%) were called active. The inconclusive results got no clear call from the source; some entries with a clear call stand among them for comparison. Calls come from the whole dose curve; as a rule, active = well fitted inhibition curve with a large enough effect; inconclusive = small, poorly fitted or top-dose-only effect; inactive = no such curve, though single readings can be large or run the other way. A potency beside an inconclusive call is a rough fit, not a confirmed value.
# Target: Ferritin light chain (Equus caballus) (UniProt P02791)
# Experiment: qHTS Assay for Identification of Novel General Anesthetics; note: nearly all actives have a fitted effect of over 20% in size
# Details: apoferritin/1-aminoanthracene competitive binding, fluorescence; activity change, negative = displacement: at 77.5 µM (top of the series)
# How it was run: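 Read-out: endpoint 1-AMA fluorescence, excitation 380 nm and emission 535 nm, after compounds sit 10 min at room temperature with 10 uM horse-spleen apoferritin in 50% saturated 1-AMA/PBS. Values come from four-parameter Hill fits.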
# % is set by controls: 0 for no effect and ±100 for the full control effect; potency is the fitted concentration of half-maximal effect; tags give direction and shape of the fitted curve.
# Chain of UniProt P02791 (P02791 whole entry, looked up): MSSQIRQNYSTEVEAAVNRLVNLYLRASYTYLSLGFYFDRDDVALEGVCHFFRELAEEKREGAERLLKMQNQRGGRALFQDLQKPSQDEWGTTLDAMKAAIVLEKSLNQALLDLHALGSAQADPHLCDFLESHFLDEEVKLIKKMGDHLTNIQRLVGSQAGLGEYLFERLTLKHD
SMILES,"activity change, negative = displacement",Potency
COc1ccccc1N1CCN(Cc2cn[nH]c2-c2ccc(F)cc2)CC1,inactive: -6.7%,–
Cc1nn2c(=O)cc(COC(=O)c3cccc(NC(=O)COc4ccccc4C)c3)nc2s1,–,"inconclusive: 15.8 µM [inhibitor, single point]"
CCN(CC)C(=O)c1ccc2c(c1)N(Cc1ccc(C(F)(F)F)cc1)C(=O)c1ccccc1S2,–,"inconclusive: 3.16 µM [inhibitor, partial curve]"
Cc1ccc(N2C(=O)CCSC23C(=O)N(Cc2ccccc2)c2ccccc23)cc1 (stereo unspecified),inactive: -7.6%,–
CCc1ccc(NC(=O)c2nc(S(=O)(=O)Cc3ccccc3)ncc2Cl)cc1,–,"inconclusive: 39.8 µM [inhibitor, single point]"
CCN(c1ccc(NC(=O)COC(=O)/C=C/c2cccs2)cc1)C(C)C,–,"inconclusive: 35.5 µM [inhibitor, partial curve]"
CC12CCC(C/C1=N\OC(=O)c1ccc(F)cc1)C2(C)C (stereo unspecified),inactive: -22.5%,–
COC(=O)c1ccc(C(=O)OC)c(NC(=O)CN(c2ccccc2)S(=O)(=O)N(C)C)c1,–,"inconclusive: 31.6 µM [inhibitor, partial curve]"
Cc1[nH]nc(N2CCCCCC2)c1[N+](=O)[O-],–,"inconclusive: 31.6 µM [inhibitor, partial curve]"
NCCSC1CC(=O)N(c2ccc(Cl)c(Cl)c2)C1=O (stereo unspecified),–,"inconclusive: 50.1 µM [inhibitor, single point]"
COc1ccccc1N1CCN(C(=O)c2cc(-c3ccc(C)c(F)c3)on2)CC1,–,"inconclusive: 3.98 µM [inhibitor, full curve]"
Cn1c(=O)n(C)c2cc(S(=O)(=O)NCCc3ccccc3)ccc21,–,"inconclusive: 39.8 µM [inhibitor, partial curve]"
O=C(Nc1ccccc1Cl)ON=C1c2ccccc2-c2ccccc21,–,"inconclusive: 25.1 µM [inhibitor, partial curve]"
O=C(CSc1nnc(-c2cccs2)n1Cc1ccco1)c1ccc2c(c1)OCO2,–,"inconclusive: 25.1 µM [inhibitor, partial curve]"
Cc1cc(C)n2c(SCC(=O)N3CCN(S(=O)(=O)c4ccc(Cl)cc4)CC3)nnc2n1,–,"inconclusive: 35.5 µM [inhibitor, single point]"
COc1ccc(/C=N/NC(=O)CNc2ccc(Br)cc2)c(C(=O)O)c1OC,–,"inconclusive: 31.6 µM [inhibitor, single point]"
CN(C)c1ccc(CN(C(=O)C2COc3ccccc3O2)C2CCS(=O)(=O)C2)cc1 (stereo unspecified),–,"inconclusive: 35.5 µM [inhibitor, single point]"
O=S(=O)(c1ccc(C2=CSC3=NCCN23)cc1)N1CCOCC1,–,"inconclusive: 0.891 µM [inhibitor, full curve, poor fit]"
O=C(CSCc1c(Cl)cccc1Cl)NN=C1CCCC1,–,"inconclusive: 14.1 µM [inhibitor, partial curve]"
c1coc(-c2nc(-c3ccco3)c(-c3ccco3)nc2-c2ccco2)c1,inactive: -13.8%,–
CCC(=O)N=c1sc2ccccc2n1-c1ccccc1,–,"inconclusive: 22.4 µM [inhibitor, partial curve]"

SMILES,"activity change, negative = displacement",Potency
COc1cc(CNc2ccc3[nH]c(=O)[nH]c3c2)ccc1OCc1ccc(F)cc1Cl,–,"inconclusive: 14.1 µM [inhibitor, partial curve]"
N=C1/C(=C\c2ccc(OC(=O)c3ccccc3)cc2)C(=O)N=C2SC(N3CCOCC3)=NN12,–,"inconclusive: 14.1 µM [inhibitor, partial curve]"
COc1ccc(Cn2ccc3nc(C)c(C(=O)N4CCN(c5cccc(OC)c5)CC4)cc3c2=O)cc1,–,"inconclusive: 31.6 µM [inhibitor, single point]"
O=c1[nH][nH]c(C(F)(F)F)c1C=Nc1ccc(Cl)cc1,–,"inconclusive: 28.2 µM [inhibitor, single point]"
COc1ccc(NC(=O)c2c(NC(=O)C(F)(F)F)sc3c2CCCCC3)cc1,–,"inconclusive: 35.5 µM [inhibitor, single point]"
CSc1nsc(N/N=C/c2ccc3c(c2)OCO3)c1C#N,inactive: -5.42%,–
O=C1Nc2ccc([N+](=O)[O-])cc2C1(O)N1CCCCCC1 (stereo unspecified),–,"inconclusive: 39.8 µM [inhibitor, partial curve]"
CCN(CC)S(=O)(=O)c1ccc(NN)nc1,–,"inconclusive: 35.5 µM [inhibitor, single point]"
CCN(CC)c1ccc(C2C3CCCCC3(O)CCN2CC(=O)N2CCCCC2)cc1 (stereo unspecified),–,"inconclusive: 39.8 µM [inhibitor, single point]"
N#CCSc1nnc(-c2ccccc2)c(-c2ccccc2)n1,–,"inconclusive: 17.8 µM [inhibitor, partial curve]"
Cc1ccc(C)n1-n1cnc2sc3c(c2c1=O)CCCCC3,–,"inconclusive: 50.1 µM [inhibitor, partial curve]"
COc1nc(NCc2ccco2)nc(N2CCC(C)CC2)n1,–,"inconclusive: 35.5 µM [inhibitor, partial curve]"
O=C(O)CC/C(=N\NC(=O)CNC(=O)c1ccc(F)cc1)c1ccccc1,–,"inconclusive: 11.2 µM [inhibitor, partial curve]"
c1ccc(C2[C@H]3CN(Cc4cccnc4)[C@H](c4ccccc4)C34CC2(c2cccnc2)C4)cc1 (stereo partly specified),–,inactive
Cc1cccc(CSc2nc3c(sc4ccccc43)c(=O)n2CCC(=O)NC(C)C)c1,–,"inconclusive: 50.1 µM [inhibitor, single point]"
Cc1ccc(OCc2nc(-c3ccc(Cl)cc3)n[nH]2)cc1,inactive: -17.9%,–
CCCCOC(=O)Nc1cccc(Cl)c1C,–,"inconclusive: 17.8 µM [inhibitor, partial curve]"
CCCCOC(=O)CSc1nnc(-c2ccc(Cl)cc2Cl)o1,–,"inconclusive: 39.8 µM [inhibitor, partial curve]"
O=C(CCc1c[nH]c2ccccc12)NCc1ccc2c(c1)OCO2,–,"inconclusive: 28.2 µM [inhibitor, single point]"
Cc1ccc(Cn2cccc(NC(=O)NCc3ccccc3)c2=O)cc1,–,"inconclusive: 6.31 µM [inhibitor, full curve]"
